From PubChem BioAssay AID588453 (National Center for Advancing Translational Sciences (NCATS), 2011)
Hit rate of the full screen: of about 390,000 compounds, about 4,000 (1%) were called active. Inconclusive means that the source gave no clear call. Such entries were picked first, then a sample of the others. Calls follow the shape of the dose curve; as a rule, active = well fitted inhibition curve with a large enough effect; inconclusive = small, poorly fitted or top-dose-only effect; inactive = no such curve, though single readings can be large or run the other way. Potencies beside an inconclusive call are fits to weak or partial responses and may not hold up.

target: Thioredoxin reductase 1, cytoplasmic (Rattus norvegicus) (UniProt O89049); test: qHTS Assay for Inhibitors of Mammalian Selenoprotein Thioredoxin Reductase 1 (TrxR1): qHTS; details: recombinant rTrxR1, NADPH fluorescence consumption, selenite substrate; series mostly up to 114 µM; also: nearly all actives have a fitted effect of over 65% in size
UniProt O89049, sequence (O89049 whole entry, looked up): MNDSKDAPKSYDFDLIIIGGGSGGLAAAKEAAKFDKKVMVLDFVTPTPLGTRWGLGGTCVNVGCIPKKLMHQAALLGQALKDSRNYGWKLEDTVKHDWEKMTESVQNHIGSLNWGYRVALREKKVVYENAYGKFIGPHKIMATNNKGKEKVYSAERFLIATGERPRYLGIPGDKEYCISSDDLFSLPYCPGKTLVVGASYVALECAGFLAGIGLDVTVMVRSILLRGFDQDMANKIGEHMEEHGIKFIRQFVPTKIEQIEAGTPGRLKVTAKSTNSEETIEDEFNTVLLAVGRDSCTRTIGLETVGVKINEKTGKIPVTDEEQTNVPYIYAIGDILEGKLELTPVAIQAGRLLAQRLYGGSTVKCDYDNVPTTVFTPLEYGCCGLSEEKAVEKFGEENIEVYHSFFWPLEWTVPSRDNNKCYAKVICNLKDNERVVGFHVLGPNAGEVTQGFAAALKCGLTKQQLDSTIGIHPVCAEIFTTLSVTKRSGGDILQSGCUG
Procedure, shortened: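 Rat TrxR1 (90 nM in the dispensed reagent) was pre-reduced with 400 uM NADPH for 5 min at room temperature, then incubated with compound for 15 min. After 400 uM selenite was added, NADPH fluorescence (Ex 340/Em 450 nm) was followed for 8 min.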
Potency is read from the fitted curve at half-maximal effect; tags tell the direction and shape of the fitted curve.

Structure (SMILES) | Potency
Cc1ccccc1S(=O)(=O)N1C[C@H]2CON(C)[C@H]2C[C@H]1c1cccc(Br)c1 | inconclusive: 89.1 µM [inhibitor, single point]
O=C(/C=C/c1ccc(F)cc1)c1cc(Br)ccc1O | inactive
Cc1cc2n(n1)C(c1ccc(O)cc1)Nc1ccccc1-2 (centres undefined) | inconclusive: 22.4 µM [inhibitor, partial curve, poor fit]
CC(=O)c1ccc(NC(=O)/C(=C\c2ccco2)NC(=O)c2ccco2)cc1 | inconclusive: 44.7 µM [inhibitor, partial curve]
CCOc1c(Br)cc(/C=C(\C#N)C(=O)NC2CC2)cc1OC | inconclusive: 25.1 µM [inhibitor, partial curve, poor fit]
CCc1sc(C(C2C(=O)CC(C)(C)CC2=O)C2C(=O)CC(C)(C)CC2=O)cc1[N+](=O)[O-] | active: 1.78 µM
N#CC1=C(N)C(C#N)(C#N)[C@H](c2ccsc2)[C@H]2COCC=C12 | inconclusive: 39.8 µM [inhibitor, single point]
CC1CCN(C(=O)c2cc3c(ccc4ccccc43)o2)CC1 | inactive
CC1=NOC(=O)/C1=C\c1ccc(-c2ccc(Cl)cc2Cl)o1 | inconclusive: 20 µM [inhibitor, single point]
CC(=O)N1CC=C2C(C#N)=C(N)C(C#N)(C#N)C(CCc3ccccc3)C2C1 (centres undefined) | inconclusive: 25.1 µM [inhibitor, single point]
Cc1ccc(NC(=O)Cn2c(CCC(=O)O)ccc2-c2cccs2)cc1Cl | inconclusive: 70.8 µM [inhibitor, partial curve, poor fit]
CCOC(=O)N1CCN(C(=O)CNCc2cccs2)CC1 | inconclusive: 56.2 µM [inhibitor, partial curve, poor fit]
O=[N+]([O-])c1ccc(/C=N/Nc2ccc3ccccc3c2)o1 | inconclusive: 89.1 µM [inhibitor, partial curve, poor fit]
Cc1nc(COC(=O)c2cc(O)c3ccccc3c2O)cs1 | inconclusive: 50.1 µM [inhibitor, partial curve]
O=C(O)c1ccc(Sc2nnnn2-c2ccccc2)c([N+](=O)[O-])c1 | inconclusive: 20 µM [inhibitor, full curve]
Cc1ccc2c(c1)Cc1nc3ccccc3nc1-2 | inactive
CC(=O)CCc1oc2ccc(C)cc2c1-c1ccc(C)o1 | inconclusive: 39.8 µM [inhibitor, single point]
COCc1cc(S(=O)c2ccc(Cl)cc2)nc(C)n1 (centres undefined) | active: 14.1 µM
Cc1cc(S(=O)(=O)c2ccc([N+](=O)[O-])cn2)ccc1Br | active: 0.112 µM
COc1ccc(/C=C/c2c(-c3ccc(OC)cc3)oc3cccnc23)cc1 | inconclusive: 35.5 µM [inhibitor, single point]
C=CC[C@H](CC(=O)N(CCO)Cc1ccccc1)C(=O)N[C@@H](COC(=O)[C@@H](CC=C)Cc1ccc(F)cc1)Cc1c[nH]c2ccccc12 | inactive
Brc1ccc2c(c1)[C@H]1OCC[C@H]1[C@@H](c1cccs1)N2 | inconclusive: 89.1 µM [inhibitor, single point]

Structure (SMILES) | Potency
CCc1nc(SCC(=O)c2ccc(C)c(C)c2)n[nH]1 | inconclusive: 79.4 µM [inhibitor, single point]
CC(C)Oc1ccc(CNC(=O)c2ccc(CS(=O)Cc3ccccc3Cl)o2)cc1 (centres undefined) | inactive
CCOc1cccc2sc(N(CCN(C)C)C(=O)CCS(=O)(=O)c3ccccc3)nc12 | inconclusive: 50.1 µM [inhibitor, partial curve]
O=c1c(C(c2ccc(Br)cc2)c2c(O)nc3n(c2=O)CCCS3)c(O)nc2n1CCCS2 | active: 7.08 µM
Cc1ccc2c(CC(=O)N3CCN(c4cccc(Cl)c4)CC3)coc2c1C | inconclusive: 89.1 µM [inhibitor, single point]
COc1ccc(Cn2c(-c3ccc(C)cc3)c[n+]3ccccc23)cc1 | inactive
Cc1c(N/C=C/C(=O)c2cccs2)c(=O)n(-c2ccccc2)n1C | inconclusive: 31.6 µM [inhibitor, single point]
C=CCOc1cccc(C2C(C(=O)c3ccco3)=C(O)C(=O)N2CCN2CCOCC2)c1 (centres undefined) | inconclusive: 35.5 µM [inhibitor, full curve]
O=C(OCc1nc2scc(-c3ccccc3)c2c(=O)[nH]1)c1ccco1 | inactive
Cc1[nH]c2ccccc2c1/C=C/c1ccc2ccccc2n1 | inconclusive: 89.1 µM [inhibitor, partial curve, poor fit]
COc1ccc(NC(=O)c2ccc3c(c2)N(Cc2cccc(Cl)c2)C(=O)c2ccccc2S3(=O)=O)cc1Cl | inactive
Cc1ccnc(NS(=O)(=O)c2ccc(Oc3ccccc3)cc2)c1 | inactive
CCCCc1ccc(NC(=O)CC(C)=O)cc1 | inactive
Nc1cc[n+](CC(=O)c2ccc3c(c2)OCCO3)cc1 | inactive
O=C(O)c1ccc(N2CCCC2=O)cc1 | inconclusive: 31.6 µM [inhibitor, partial curve, poor fit]
CCc1ccc(N(C(C)=O)C2C=CS(=O)(=O)C2)cc1 (centres undefined) | inconclusive: 35.5 µM [inhibitor, single point]
C[n+]1ccccc1/C=C/c1c(F)cccc1F | inconclusive: 79.4 µM [inhibitor, partial curve, poor fit]
c1coc(CNc2nc3nonc3nc2NCc2ccco2)c1 | inconclusive: 89.1 µM [inhibitor, single point]
Cc1ccccc1C1=NC(C(F)(F)F)(C(F)(F)F)c2c(n(-c3ccc(F)cc3)c(=O)[nH]c2=O)N1 | inconclusive: 89.1 µM [inhibitor, single point]
CCOC(=O)C1CCCN(c2c(Nc3ccc(OCC)cc3)c(=O)c2=O)C1 (centres undefined) | inconclusive: 89.1 µM [inhibitor, single point]
CC(=O)CSc1nc2ccccc2s1 | inconclusive: 39.8 µM [inhibitor, partial curve, poor fit]
C=C(CN(C)C)C(=O)c1cc(C)ccc1C | active: 1.78 µM
